These results are taken from ChEMBL document CHEMBL4888484, “Replenishing the malaria drug discovery pipeline: Screening and hit evaluation of the MMV Hit Generation Library 1 (HGL1) against asexual blood stage Plasmodium falciparum ,using a nano luciferase reporter read-out” (2022).

The campaign covered roughly 150,000 compounds. About 540 (0.36%) showed an effect of 50% or more. This is one part of the list.

This test relates to Plasmodium falciparum. Description: Primary screen in NF54 nanoGlo assay, in single point, at 2uM, 72h; a lower Z score goes with more inhibition. Type of test: functional, Erythrocyte. The following applies: timepoint 72 hour.
In the case of `C[C@H](NC(=O)C1CCN(S(=O)(=O)Cc2ccccc2)CC1)c1ccccc1`, the “% Inhibition” value was -15% and the Z score was 2.74.

For the molecule `COc1nccnc1N1CC[C@]2(CCOC2)C1`, the “% Inhibition” value is listed as -2% and the Z score amounted to 0.25.

On to `O=C1c2cc(Cl)c(Cl)cc2C(=O)N1c1cccc(Oc2ccccc2)c1`, for which the “% Inhibition” value is -21% and the Z score amounted to 3.6.

Consider `O=C(Cn1cnnn1)Nc1ccc(N2C(=O)c3ccccc3C2=O)cc1`, for which the “% Inhibition” value is listed as 2% and the Z score is given as -0.38.

`O=C(NC1CCCCC1)[C@H]1CNC[C@@H](COc2cccc(F)c2)C1`: the “% Inhibition” value is recorded as -5% and the Z score is on record as 0.95.

In the case of `Cc1nccc(-c2cccc(NC(=O)Cc3cc(Cl)c4c(c3)OCCCO4)c2)n1`, the “% Inhibition” value was -51% and the Z score is 6.03.

As to `COc1ccc(CCCN2CCS(=O)(=O)C(C)(C)C2)cc1F`, the “% Inhibition” value was -11% and the Z score turned out to be 1.17.

In the case of `CC[C@H](NCc1nnnn1C(C)C)c1cc(F)ccc1F`, the “% Inhibition” value is reported as -18% and the Z score is reported as 1.61.

Consider `Cc1ccc(NC(=O)CCN2CCC3(CCC(=O)NC3)CC2)cc1Cl`, for which the “% Inhibition” value is -9% and the Z score came to 1.36.

Regarding `O=C1CN2C(=O)[C@]3(CCN(C(=O)CN4CCOCC4)[C@H]3c3cccc(c3)OCCCN1)c1ccccc12`, the “% Inhibition” value stood at 0% and the Z score was 0.02.

As for `CCOC(=O)c1ccc2cn(C(C)=O)nc2c1`, the “% Inhibition” value is given as -7% and the Z score was 0.75.

For `Cc1nn(-c2ccccn2)c(O)c1C(c1ccccc1)c1c(C)nn(-c2ccccn2)c1O`, the “% Inhibition” value came out at 96% and the Z score is on record as -9.38.

Consider `Cc1ccc(CCC(=O)N2CCC(N3CCC[C@@H]3COCc3ccccc3)CC2)cc1C`, for which the “% Inhibition” value was -3% and the Z score is on record as 0.49.

Take `Cc1ccc(OCCN)c(C(=O)N2CCNC(=O)[C@@H]2c2ccc(F)cc2)c1`: the “% Inhibition” value was found to be 5% and the Z score is recorded as -0.61.

Consider `Nc1cccc(C(=O)OC[C@@H](O)CO)c1`, for which the “% Inhibition” value is recorded as -1% and the Z score is 0.19.

As to `COc1ccc(NC(=O)CC[C@@H]2NC(=O)c3ccccc3NC2=O)cc1N1CCCCS1(=O)=O`, the “% Inhibition” value is -10% and the Z score was 1.25.

On to `Cn1cc([C@@H](NC(=O)Nc2cccc(Cl)c2)C2(CO)CCC2)cn1`, for which the “% Inhibition” value came out at 0% and the Z score is given as 0.03.

Regarding `C=CCc1c(C)nn(-c2nc(CC(=O)NCCC)cs2)c1C`, the “% Inhibition” value is given as -15% and the Z score was 2.49.

Take `CN(C)c1nc(NCc2n[nH]c(=O)[nH]2)ncc1F`: the “% Inhibition” value is -1% and the Z score is reported as 0.09.

Regarding `CCOc1ncccc1-c1nc2c(cc1C(N)=O)CCC2`, the “% Inhibition” value is 3% and the Z score is reported as -0.34.

Take `c1cc2c(cc1CN1CCN(Cc3noc(C4CC4)n3)CC1)CCO2`: the “% Inhibition” value was -4% and the Z score was found to be 0.57.

In the case of `CC1CCCC(OCC(=O)N2CCC3CCC(C2)N3C)C1` (stereo not drawn), the “% Inhibition” value was -4% and the Z score is listed as 0.39.

`O=C(Nc1ccc2ccccc2c1)c1sc2ccccc2c1Cl`: the “% Inhibition” value is reported as 0% and the Z score is -0.02.

On to `Cc1cc(C)cc(NC(=O)CC2(CC3=Nc4ccccc4S(=O)(=O)N3)CCCC2)c1`, for which the “% Inhibition” value was found to be 3% and the Z score was -0.35.

Regarding `CCc1nnc(NC(=O)c2cc(-c3ccc(Cl)cc3Cl)oc2C)s1`, the “% Inhibition” value was -30% and the Z score was found to be 3.95.

As to `CC[C@@H](c1ccncc1)N(CC)C(=O)c1cccnc1C`, the “% Inhibition” value is -1% and the Z score is listed as 0.09.

For `O=C(NCCCc1nc2c(s1)CCCC2)c1csnn1`, the “% Inhibition” value is reported as -8% and the Z score was found to be 1.1.

As for `Cc1ccc(-c2nc(N[C@H]3CCS(=O)(=O)C3)ncc2-c2cncnc2)cc1`, the “% Inhibition” value is given as -14% and the Z score worked out at 2.32.

Take `Cc1ccc(C)c(NC(=O)CNC(C)(C)C)c1`: the “% Inhibition” value is reported as -4% and the Z score was found to be 0.65.

Consider `CC(C)C1CCC(NC(=O)c2cc3n(n2)CCCC3)CC1` (stereo not drawn), for which the “% Inhibition” value is recorded as 1% and the Z score is -0.17.

For `CONC(=O)N[C@H](c1ccccc1Cl)C(C)C`, the “% Inhibition” value is -14% and the Z score amounted to 1.31.

On to `Nc1nc(CNC(=O)[C@H]2CCOc3ccccc3C2)n[nH]1`, for which the “% Inhibition” value is given as -14% and the Z score stood at 2.78.

On to `COCc1cc(NC(=O)NCc2ccc(Cl)c(C)c2)ncn1`, for which the “% Inhibition” value came out at 0% and the Z score was -0.01.

For the molecule `O=C(NCC[C@H]1CCCCN1C1CCCC1)[C@H]1CC[C@H](O)CC1`, the “% Inhibition” value is -5% and the Z score is reported as 0.93.

With `Cc1ccc(F)cc1C(=O)N(c1cccc(F)c1)C1CCOCC1`, the “% Inhibition” value was -14% and the Z score came out at 1.52.

For `Cc1cc(-c2nn(-c3ccccc3F)cc2CN(C)C[C@H]2COCCO2)c(C)s1`, the “% Inhibition” value was -7% and the Z score came out at 1.31.

In the case of `Cc1nc(C)c(CC(=O)N2CCNC(=O)[C@@H]2Cc2ccccc2)s1`, the “% Inhibition” value is given as -3% and the Z score is on record as 0.49.

With `Cc1c(C(=O)N2CCN(Cc3cc(F)cc(F)c3)CC2)ccn1C`, the “% Inhibition” value is recorded as -12% and the Z score is 1.97.

As for `Cc1noc(C)c1CN(C)C(=O)Nc1c(C)c(-c2ccccc2)nn1C`, the “% Inhibition” value is -14% and the Z score is 1.69.

As to `Cc1cc(NCc2nc(-c3cnccn3)n[nH]2)nc(Nc2cccc(O)c2)n1`, the “% Inhibition” value is -1% and the Z score turned out to be 0.08.

As for `COc1ccc2c(c1)CCc1c(C(=O)NCc3ccccc3OC)n[nH]c1-2`, the “% Inhibition” value is -1% and the Z score stood at 0.11.

For `O=C(NCCc1nnc2ccccn12)C1(c2cccc(F)c2)CCCCC1`, the “% Inhibition” value is given as -4% and the Z score was found to be 0.64.

`O=C(Cc1ccc(Br)cc1)n1cnc2ccccc21`: the “% Inhibition” value is on record as 8% and the Z score was -0.94.

As to `Cc1ccc2c(c1)c(=O)n(Cc1ccccc1)c(=O)n2CC(=O)N[C@@H](C)c1ccccc1`, the “% Inhibition” value was -16% and the Z score amounted to 2.6.

In the case of `CN(c1ccc(C(F)(F)F)cn1)C1CCCCC1`, the “% Inhibition” value is given as -20% and the Z score turned out to be 2.34.

Consider `CC[C@H](C)NC(=O)NCCN1Cc2ccccc2C1`, for which the “% Inhibition” value is recorded as -20% and the Z score came out at 1.87.

As to `O=S(=O)(CCC1CCCO1)N1CCCC(N2CCCCC2)C1` (stereo not drawn), the “% Inhibition” value is -4% and the Z score is on record as 0.4.

`CCC(NCCC(=O)N1CCc2ccccc2C1)C1CCCO1` (stereo not drawn): the “% Inhibition” value came out at 0% and the Z score is listed as 0.02.

With `Cc1noc([C@H]2CCC(=O)N(CCc3ccccc3)C2)n1`, the “% Inhibition” value is reported as -2% and the Z score amounted to 0.27.

For `C[C@H]1CCN(C(=O)c2ccoc2)CC12CCC2`, the “% Inhibition” value is -37% and the Z score amounted to 4.36.

Consider `CCCn1c(C(=O)NCCc2ccccn2)cc2cc(NC(=O)c3ccco3)ccc21`, for which the “% Inhibition” value is reported as -5% and the Z score was 0.63.

In the case of `CCc1nnsc1C(=O)NCCCN1CCC[C@H](C)C1`, the “% Inhibition” value was -7% and the Z score was 0.99.

For `Cc1sc(-c2cc(C(F)(F)F)on2)cc1S(=O)(=O)Nc1cccc(Cl)c1C`, the “% Inhibition” value worked out at 0% and the Z score worked out at 0.03.

In the case of `Cc1cc(Cl)ccc1NC(=O)CCn1c(=O)sc2cc(S(=O)(=O)N3CCCC3)ccc21`, the “% Inhibition” value is on record as -1% and the Z score turned out to be 0.25.
